Measured values reported in article PMC4336329 (PLoS ONE, 2015).
The campaign covered roughly 310,000 compounds. About 2,200 (0.71%) showed an effect of 50% or more. Effects have a minus sign here. Some of the results follow.

What follows are molecules tested against human ether-à-go-go-related gene (hERG) potassium channel (human, UniProt Q12809) (assay: primary screen, population patch clamp on CHO cells stably expressing hERG).
Chain of human ether-à-go-go-related gene (hERG) potassium channel (Q12809 whole entry, looked up): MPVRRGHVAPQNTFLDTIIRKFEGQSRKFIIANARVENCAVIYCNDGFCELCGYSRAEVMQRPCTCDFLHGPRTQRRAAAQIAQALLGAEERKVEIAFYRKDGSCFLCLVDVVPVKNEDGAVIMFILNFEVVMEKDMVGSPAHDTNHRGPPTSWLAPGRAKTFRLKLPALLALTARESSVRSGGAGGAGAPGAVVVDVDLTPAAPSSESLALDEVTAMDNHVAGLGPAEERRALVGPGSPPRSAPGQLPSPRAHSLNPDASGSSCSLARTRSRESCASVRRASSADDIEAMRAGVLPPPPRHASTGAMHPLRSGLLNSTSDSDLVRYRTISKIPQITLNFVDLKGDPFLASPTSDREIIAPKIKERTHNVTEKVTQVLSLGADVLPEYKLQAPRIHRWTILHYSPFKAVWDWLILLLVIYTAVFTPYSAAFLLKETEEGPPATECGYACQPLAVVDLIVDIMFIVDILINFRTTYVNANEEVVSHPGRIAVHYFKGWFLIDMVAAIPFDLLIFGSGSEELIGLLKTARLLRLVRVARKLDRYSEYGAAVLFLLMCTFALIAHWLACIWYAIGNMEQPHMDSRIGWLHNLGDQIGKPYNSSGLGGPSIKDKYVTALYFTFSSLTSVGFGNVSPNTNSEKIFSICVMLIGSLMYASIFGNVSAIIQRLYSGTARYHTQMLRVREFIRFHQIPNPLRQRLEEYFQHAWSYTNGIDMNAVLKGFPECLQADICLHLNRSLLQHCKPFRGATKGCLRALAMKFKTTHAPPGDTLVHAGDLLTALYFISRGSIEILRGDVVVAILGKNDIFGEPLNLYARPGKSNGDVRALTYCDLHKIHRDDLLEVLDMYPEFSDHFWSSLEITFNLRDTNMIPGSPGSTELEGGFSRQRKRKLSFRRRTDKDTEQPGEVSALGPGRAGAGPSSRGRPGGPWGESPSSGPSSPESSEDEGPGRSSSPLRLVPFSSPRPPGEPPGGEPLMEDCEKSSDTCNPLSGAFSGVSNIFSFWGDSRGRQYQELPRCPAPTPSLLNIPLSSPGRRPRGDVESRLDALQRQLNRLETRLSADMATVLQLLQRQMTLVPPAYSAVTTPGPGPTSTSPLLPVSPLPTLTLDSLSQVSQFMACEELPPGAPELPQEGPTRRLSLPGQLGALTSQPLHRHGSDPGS

SMILES	hERG current change (%, negative = inhibition) at 1uM [%]
Cc1ccc(Cl)cc1N(C)C(=O)Cn1ncc2c([nH]c3ccccc32)c1=O	14.2
CCOC(=O)c1c(C)c(C(=O)NCC2CCCO2)c(C)n1CC (centres unmarked)	-11.9
O=c1ccc(-c2ccccc2)nn1Cc1ccc(Cl)cc1	8.24
CN(c1ccccc1)c1nc(N)c([N+](=O)[O-])c(N2CCCCCC2)n1	18.8
COc1cc(CCC(=O)Nc2nccs2)cc(OC)c1OC	16.2
Cc1ccc(C(=O)NCc2ccncc2)cc1S(=O)(=O)N1CCOCC1	15.1
O=C(c1ccncc1)N1N=C(c2ccc(Br)cc2)CC1c1ccccc1O (centres unmarked)	7.41
COC(=O)C1=C(C)Nc2nnnn2C1c1cc(OC)ccc1OC (centres unmarked)	12.7
Cc1ccc(C)c(C(=O)Nc2nc3ccccc3[nH]2)c1	16.9
C=CCC1c2cccc(C(=O)OC)c2C(=O)N1c1ccccc1 (centres unmarked)	12.3
CCOC(=O)C1CCN(C(=O)c2cnn3c(C)cc(C)nc23)CC1	5.22
CSc1ccc(C2c3[nH]c4ccccc4c3CCN2C(=O)c2cc(C)n(C)n2)cc1 (centres unmarked)	24.8
CC(C)C(=O)Nc1sc2c(c1C#N)CCCCC2	14.6
CC(C)Cc1cc(C(=O)Nc2c(F)cc(F)cc2Br)no1	-13.4
CCCc1cc(=O)oc2c(C)c(OCC(=O)N3C[C@H]4C[C@@H](C3)c3cccc(=O)n3C4)ccc12	5.33
Cc1cc(C)c(S(=O)(=O)N2CCN(CCO)CC2)c(C)c1	6.94
CCc1nn(CC(=O)NCCCN2CCN(C)CC2)c(=O)c2cc3occc3n12	11.5
CCOC(=O)Cn1ccc(O)c(Cc2ccc(Cl)cc2Cl)c1=O	0.857
C[C@@H]1C[C@H]2[C@@H]3C[C@H](F)C4=CC(=O)C=C[C@]4(C)[C@@]3(Cl)[C@@H](O)C[C@]2(C)[C@H]1C(=O)COC(=O)C(C)(C)C	12.6

SMILES	hERG current change (%, negative = inhibition) at 1uM [%]
COc1ccc(NC(=O)/C(C#N)=C/c2ccc[nH]2)c(OC)c1	9.42
COc1ccc(NC(=O)COc2ccccc2Cc2ccccc2)cn1	7.54
COc1ccc(/C=C2\CCCc3c2nc2ccc(C)cc2c3C(=O)O)cc1O	17.6
O=C(O)CCN=C1CCCc2ccccc2N1	7.93
COc1cc(C)nc(-c2csc(C)n2)n1	5.76
COc1ccc(N2CC(C(=O)N3CCC4(CC3)CC(=O)c3ccccc3O4)CC2=O)cc1 (centres unmarked)	-34.8
O=S(=O)(Nc1ccc(-c2ccc3nncn3n2)cc1)c1ccc(Cl)s1	-2.82
O=C1C2CC=CCC2C(=O)N1c1ccc(NCCc2ccccc2)c([N+](=O)[O-])c1 (centres unmarked)	16.4
Cc1c(C(=O)Nc2ccc(-c3nnc4n3CCCCC4)cc2)oc2ccc(Br)cc12	15.1
OCc1ccnc2c(O)cccc12	5.05
COC(=O)c1[nH]c2ccc(Br)cc2c1NC(=O)CN1CCCc2ccccc21	8.7
C=CCN(CC=C)CC(=O)Nc1cccc(Oc2cnccn2)c1	17.7
COc1ccccc1C(=O)NC(=O)COC(=O)C1(C)CC1(Cl)Cl (centres unmarked)	7.58
CC(Cc1ccccc1)N1C(=O)c2cccc([N+](=O)[O-])c2C1=O (centres unmarked)	16
CSCC(=O)N1CCC(CCC(=O)NC2CC2)CC1	10.7
CCOC(=O)c1c(-c2ccccc2)csc1NC(=O)COc1ccc2c(C)cc(=O)oc2c1	9.49
CC(=O)c1cccc(NC(=S)NC(=O)c2ccccc2Br)c1	11.9
Cc1cc(NC(=O)COC(=O)C(C)Oc2ccc(Cl)cc2Cl)no1 (centres unmarked)	19.1
CCOC(=O)C1=C(N)n2c(s/c(=C\c3cccnc3)c2=O)=C(C(=O)OC)C1c1cccnc1 (centres unmarked)	10.4

SMILES	hERG current change (%, negative = inhibition) at 1uM [%]
O=C(Nc1ccccc1)N1CCCC1	0.56
COC(=O)CCC(=O)N(CCN(Cc1ccccc1)C(=O)CCC(=O)OC)Cc1ccccc1	5.12
CN1C(=O)CSC1=Nc1cccc(C(=O)O)c1	11.7
CC(C)N(CCCNC(=O)C1CCN(C(=O)c2cc3sccc3n2C)CC1)Cc1ccccc1	-6.77
CC(C)c1ccccc1NC(=O)c1cnccn1	2.73
N#Cc1cccc(NC(=O)CSc2n[nH]c(=O)[nH]c2=O)c1	9.04
CCCCc1ccc(CC(=O)Nc2cc(S(=O)(=O)N3CCOCC3)ccc2O)cc1	12.3
O=C(Cc1cccc(C(F)(F)F)c1)NCc1cccc(Cl)c1	9.22
O=C(CSc1cccc2cccc(Cl)c12)OCC(=O)N1CCN(C(=O)c2ccco2)CC1	-14.2
CC(=O)N(C(C)=O)c1nc2nc(C)cc(C)n2n1	9.89
CCCC(=O)Nc1cc2c3c(c1)C(C)C(=O)N3CCC2 (centres unmarked)	15.1
COc1ccc(NC(=S)N2CCC(c3ccccc3)C2)cc1 (centres unmarked)	9.29
CSCc1c(C(=O)Nc2ccccc2N2CCOCC2)oc2ccccc12	6.48
CCN(CC)CCOC(=O)c1cccc(Br)c1.Cl	-30
COc1ccccc1N1CCN(C(=O)c2ccc3c(=O)n(Cc4ccc5c(c4)OCO5)c(=O)[nH]c3c2)CC1	19.4
Cc1ccc(-n2nc3c(=O)n(CC(=O)NCCc4ccccc4C)nc(C)c3c2C)cc1	7.42
O=C(CSc1ccc(-c2cccc([N+](=O)[O-])c2)nn1)NC1CCCC1	14.2
Cc1ccc(C)c(OCC(=O)Nc2cccc(S(=O)(=O)NC3=NCCCCC3)c2)c1	5.48
